# Assay results as given in PMC7803741.
# The chains behind the UniProt entries cited, without tags or fusion partners. Where a name states a change or a piece, a line headed by the entry shows the natural chain unless it says otherwise. A line that says so, or that is headed by a name, gives the form on record, which may keep a tag or linker. Residues count along the entry.
# UniProt P60521: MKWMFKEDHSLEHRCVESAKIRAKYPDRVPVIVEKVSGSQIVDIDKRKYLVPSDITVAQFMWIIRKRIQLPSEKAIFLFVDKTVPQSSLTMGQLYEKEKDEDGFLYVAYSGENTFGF
# UniProt Q9DCD6: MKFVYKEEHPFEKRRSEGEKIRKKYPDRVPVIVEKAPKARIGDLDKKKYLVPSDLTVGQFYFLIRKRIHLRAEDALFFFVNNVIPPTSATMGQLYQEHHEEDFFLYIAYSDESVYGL
# full length (FL) GFP-γ2-GABAAR wild-type (WT) (P22723-2, form named): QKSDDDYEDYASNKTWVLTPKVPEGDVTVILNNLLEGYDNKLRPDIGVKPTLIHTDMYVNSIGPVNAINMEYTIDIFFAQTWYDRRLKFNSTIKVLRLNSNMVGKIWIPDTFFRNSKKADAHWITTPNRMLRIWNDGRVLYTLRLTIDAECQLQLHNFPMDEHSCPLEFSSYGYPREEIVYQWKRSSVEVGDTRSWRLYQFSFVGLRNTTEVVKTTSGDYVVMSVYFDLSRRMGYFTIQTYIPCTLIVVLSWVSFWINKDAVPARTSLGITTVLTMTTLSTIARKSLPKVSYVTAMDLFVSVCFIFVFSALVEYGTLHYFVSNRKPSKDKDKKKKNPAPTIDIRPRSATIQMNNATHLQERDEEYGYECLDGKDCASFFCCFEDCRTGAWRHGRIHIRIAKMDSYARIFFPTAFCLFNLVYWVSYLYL
# UniProt P84092, residues 158-435: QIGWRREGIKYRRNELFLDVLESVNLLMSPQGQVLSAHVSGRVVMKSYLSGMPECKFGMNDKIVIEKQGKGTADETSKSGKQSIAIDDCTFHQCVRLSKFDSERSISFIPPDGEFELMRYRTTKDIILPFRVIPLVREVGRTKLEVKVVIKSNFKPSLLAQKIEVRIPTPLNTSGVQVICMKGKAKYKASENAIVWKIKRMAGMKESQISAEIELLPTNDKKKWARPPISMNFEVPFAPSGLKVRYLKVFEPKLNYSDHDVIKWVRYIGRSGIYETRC
# These are yes or no findings as the source states them, for the method shown. For some of these results: In cells and extracts the contact can be indirect. Some entries that bind do so weakly or less than the wild type. For some of these results: Where a sequence is shown, tags or fusion partners need not be part of it.
# Tests used:
# GABARAPL2 (mouse) [1] = molecular target: GABARAPL2 (mouse) (UniProt P60521); assay: SEC; analytical gel filtration; N-terminal His6-tagged recombinant proteins at 100 µM; Superose12 or Superdex200 increase 10/300 GL; 50 mM Tris pH 7.5, 100 mM NaCl, 1 mM EDTA, 1 mM DTT; both purified
# LC3A (mouse) [2] = molecular target: LC3A (mouse) (UniProt Q91VR7); assay: as above
# GABARAP L50A (mouse) = GABARAP L50A (mouse) (UniProt Q9DCD6); assay: condition: 100–200 μM in the syringe, 10–20 μM in the cell; ITC; VP-ITC, 25 °C; 50 mM Tris pH 7.8, 100 mM NaCl, 1 mM EDTA, 1 mM DTT; γ2 subunit protein or peptide (100–200 μM) injected into GABARAP, GABARAPL1 or AP2 (10–20 μM) in the cell; one-site binding model; both purified
# GABARAP Y49A (mouse) = GABARAP Y49A (mouse) (UniProt Q9DCD6); assay: as above
# GABARAPL2 (mouse) [3] = molecular target: GABARAPL2 (mouse) (UniProt P60521); assay: as above
# LC3A (mouse) [4] = molecular target: LC3A (mouse) (UniProt Q91VR7); assay: as above
# GABARAP R67E (mouse) = GABARAP R67E (mouse) (UniProt Q9DCD6); assay: as above
# GST-GABARAP (mouse) [5] = molecular target: GST-GABARAP (mouse) (UniProt Q9DCD6); assay: pull-down; 2 µM GST-GABARAP with lysate of HEK-293 cells overexpressing GFP-γ2 FL (1% NP-40, 1% DDM), with or without AnkB WT peptide; GSH-Sepharose 4B; immunoblot for GFP; only the target purified
# [6] = molecular target: T1, GST-tagged γ2 subunit 398-415 (mouse); assay: pull-down; competitive GST pull-down; 2 µM GST-γ2 398-415 incubated with purified AP2 and rising amounts of GABARAP, 1 h at 4 °C; GSH-Sepharose 4B; 50 mM Tris pH 7.5, 100 mM NaCl, 1 mM EDTA, 1 mM DTT; Coomassie blue; both purified
# T1 sequence: ERDEEYGYECLDGKDCAS
# GST-GABARAP (mouse) [7] = molecular target: GST-GABARAP (mouse) (UniProt Q9DCD6); assay: pull-down; GST pull-down of GABARAP/γ2-GABAAR with AnkB-WT peptide as competitor (Supplementary Fig. 7a)
# [8] = molecular target: GST-GABARAP L50A variant (mouse) (UniProt Q9DCD6); assay: pull-down; 2 µM purified GST-Atg8 protein incubated with HEK-293 lysate of GFP-tagged γ2 subunit (1% NP-40, 1% DDM), 4 °C; GSH-Sepharose 4B; immunoblot; only the target purified
# GST-LC3A (mouse) = GST-LC3A (mouse) (UniProt Q91VR7); assay: as above
# GST-GABARAP (mouse) [9] = molecular target: GST-GABARAP (mouse) (UniProt Q9DCD6); assay: as above
substance,measurement,setting,value
"GABAAR γ2 subunit GIM (GABARAP interacting motif, 398–415) (from UniProt P22723-2 398-415) (peptide)",binding,GABARAPL2 (mouse) [1],no binding (tested: 100 µM)
same,binding,LC3A (mouse) [2],no binding (tested: 100 µM)
same,binding,GABARAP L50A (mouse),no binding
same,binding,GABARAP Y49A (mouse),no binding
same,binding,GABARAPL2 (mouse) [3],no binding
same,binding,LC3A (mouse) [4],no binding
same,binding,GABARAP R67E (mouse),no binding
GFP-γ2-GABAAR full length (from UniProt P22723-2 39-466) (receptor),binding,GST-GABARAP (mouse) [5],binds
MBP-AP2 (from UniProt P84092 158-435) (domain or fragment),binding,[6],binds
full length (FL) GFP-γ2-GABAAR wild-type (WT) (from UniProt P22723-2 39-466) (receptor),binding,GST-GABARAP (mouse) [7],binds
same,binding,[8],no binding (tested: 2 µM GST protein)
same,binding,GST-LC3A (mouse),no binding (tested: 2 µM GST protein)
same,binding,GST-GABARAP (mouse) [9],binds
